Consider 87 compounds from article PMC4336329 (PLoS ONE, 2015).

The structures appear in SMILES notation. Out of some 310,000 compounds screened, about 2,200 (0.71%) showed an effect of 50% or more. Effects have a minus sign here. This is one part of the list.

For this assay, the target named is human ether-à-go-go-related gene (hERG) potassium channel (human, UniProt Q12809). Description: primary screen, population patch clamp on CHO cells stably expressing hERG.
Chain of human ether-à-go-go-related gene (hERG) potassium channel (Q12809 whole entry, looked up): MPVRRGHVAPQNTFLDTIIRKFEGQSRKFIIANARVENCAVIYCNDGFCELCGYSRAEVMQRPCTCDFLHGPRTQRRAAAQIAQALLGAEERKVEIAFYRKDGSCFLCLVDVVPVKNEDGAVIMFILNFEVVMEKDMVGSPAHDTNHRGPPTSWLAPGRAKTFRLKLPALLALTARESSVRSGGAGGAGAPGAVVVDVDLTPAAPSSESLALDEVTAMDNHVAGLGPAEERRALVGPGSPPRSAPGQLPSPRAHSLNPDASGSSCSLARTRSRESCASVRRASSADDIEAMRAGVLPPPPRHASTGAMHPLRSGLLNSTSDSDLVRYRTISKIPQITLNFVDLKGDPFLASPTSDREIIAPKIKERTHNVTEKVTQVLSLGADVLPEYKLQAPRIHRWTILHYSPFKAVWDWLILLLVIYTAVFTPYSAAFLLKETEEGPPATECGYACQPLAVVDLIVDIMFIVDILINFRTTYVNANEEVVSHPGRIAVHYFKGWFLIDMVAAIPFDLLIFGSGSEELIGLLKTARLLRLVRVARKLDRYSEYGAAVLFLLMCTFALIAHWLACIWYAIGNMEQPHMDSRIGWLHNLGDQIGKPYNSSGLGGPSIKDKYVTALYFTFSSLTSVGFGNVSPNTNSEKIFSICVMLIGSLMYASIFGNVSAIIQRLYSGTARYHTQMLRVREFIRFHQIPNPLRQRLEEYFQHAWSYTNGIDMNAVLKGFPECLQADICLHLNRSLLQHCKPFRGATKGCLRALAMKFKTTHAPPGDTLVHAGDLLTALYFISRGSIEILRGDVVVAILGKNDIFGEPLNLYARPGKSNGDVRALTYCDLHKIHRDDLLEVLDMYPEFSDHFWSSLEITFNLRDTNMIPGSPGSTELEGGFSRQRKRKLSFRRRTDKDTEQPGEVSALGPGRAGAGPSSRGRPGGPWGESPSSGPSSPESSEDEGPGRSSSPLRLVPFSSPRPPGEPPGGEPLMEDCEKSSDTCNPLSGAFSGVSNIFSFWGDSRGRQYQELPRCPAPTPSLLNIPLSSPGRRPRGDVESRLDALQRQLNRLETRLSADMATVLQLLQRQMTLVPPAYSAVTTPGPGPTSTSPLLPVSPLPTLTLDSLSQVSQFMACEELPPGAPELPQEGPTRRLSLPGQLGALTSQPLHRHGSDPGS
In the case of `Cc1cc(F)ccc1S(=O)(=O)N1CCCOC1CNC(=O)C(=O)NCCC1=CCCCC1` (stereo not drawn), the “hERG current change (%, negative = inhibition) at 1uM” value was 11.3%. As for `CCC(CO)Nc1ncc([N+](=O)[O-])cc1C#N` (stereo not drawn), the “hERG current change (%, negative = inhibition) at 1uM” value is listed as 12.7%.

`O=C(NCc1ccccc1)c1ccc(CS(=O)(=O)c2ccccc2)o1`: the “hERG current change (%, negative = inhibition) at 1uM” value is recorded as 13.6%. With `COc1cc(NC(=O)c2cc(-c3ccccc3Cl)on2)cc(OC)c1OC` the figure was -2.27%; with `O=C(Cn1nnc(-c2ccccc2)n1)N/N=C/c1cc([N+](=O)[O-])ccc1O`, 9.92%. With `COc1ccc(C(=O)Oc2ccc(N(C)S(=O)(=O)c3ccccc3)cc2)cc1[N+](=O)[O-]` the figure was 11%. With `Cc1ccccc1-n1c(O)c(/C=C2/C(c3ccccc3)=Nc3ccccc32)c(=O)[nH]c1=O` the figure was -4.59%; with `ClCC1NCC(c2ccccc2Cl)c2c1[nH]c1ccccc21` (stereo not drawn), 11.7%. On to `COCCN(C(=O)Cc1cccs1)C(C(=O)NCc1ccc(OC)cc1)c1ccc(OC)cc1` (stereo not drawn), for which the “hERG current change (%, negative = inhibition) at 1uM” value was 8.44%. With `O=C(c1cc(Cl)nc2ccccc12)N1CCN(Cc2ccc3c(c2)OCO3)CC1` the figure was 0.571%; with `O=C(Nc1cccc2cccnc12)C1CCCC1`, -5.58%; with `O=C1C(NS(=O)(=O)c2cccs2)=C(N2CCN(c3ccccc3)CC2)C(=O)c2ccccc21`, 13.3%. The figure for `NC(=O)c1c(NC(=O)c2cccc(N3C(=O)CCC3=O)c2)sc2c1CCCCC2` is 14.2%; for `COc1ccc(Oc2nccc(-c3ccccc3)c2C#N)cc1` it is -2.36%; for `Cc1c(NC(=O)c2cc(-c3ccc(O)cc3)on2)c(=O)n(-c2ccccc2)n1C` it is 7.15%. With `COc1ccccc1CN1C(=O)CNC1=S` the figure was 10.1%; with `CN1CCN(c2ccc([N+](=O)[O-])cc2C(=O)c2ccc(Br)cc2)CC1`, -36.8%; with `Cc1ccc(N2CCN(/N=C/C(Cl)=C/c3ccccc3)CC2)cc1`, 4.95%. As to `Cc1ccc(OCCC(=O)Nc2ccc(F)c(Cl)c2)cc1`, the “hERG current change (%, negative = inhibition) at 1uM” value was 6.79%. For `Cc1c(Cl)cccc1NC(=O)CNC(=O)C1CCN(C(=O)Nc2ccccc2)CC1`, the “hERG current change (%, negative = inhibition) at 1uM” value amounted to 11.1%. The figure for `CCS(=O)(=O)c1ccc(O)c(NC(=O)c2cc(OC)c(OC)c(OC)c2)c1` is 6.58%. Regarding `CSc1sc(C)cc1C=O`, the “hERG current change (%, negative = inhibition) at 1uM” value is on record as 9.96%. With `COc1ccc(C(=O)COC(=O)C2CCC(=O)N2)cc1` (stereo not drawn) the figure was 7.28%.

Turning to `CC(C)(CC(=O)O)CC(=O)N1CCN(c2cc(C(F)(F)F)nc3ccccc23)CC1`, the “hERG current change (%, negative = inhibition) at 1uM” value stood at 13.2%. For the compound `C/C=C/c1ccc(OCC(=O)NCc2ccccc2OC)c(OC)c1`, the “hERG current change (%, negative = inhibition) at 1uM” value is listed as 7.25%. With `Cc1cccc(Nc2ncnc3nc[nH]c23)c1` the figure was -8.14%; with `COc1ccccc1OCCSc1nc(N)cc(N)n1`, 8.67%; with `Cc1cc(NC(=O)c2ccc3c(c2)C(=O)N(c2cccc(C)c2C)C3=O)no1`, 11.7%. The figure for `Cc1nc(NC(=O)C23CCC(C)(C(=O)O2)C3(C)C)sc1C` (stereo not drawn) is 3.32%; for `CCCCn1c(SCC(=O)/C(C#N)=C(\C)N)nc2ccccc2c1=O` it is 6.99%; for `CC(=O)OCC1(C)CN(c2ccccc2)NC1=O` (stereo not drawn) it is 11%.

In the case of `CCOP(=O)(OCC)c1nc(-c2cccc3ccccc23)oc1NCc1ccc(OC)cc1`, the “hERG current change (%, negative = inhibition) at 1uM” value was determined as 4.52%. In the case of `N#CCCn1cc(/C=N/NC(N)=S)c(-c2ccc(Br)cc2)n1`, the “hERG current change (%, negative = inhibition) at 1uM” value is 3.49%. On to `CCCCn1c(-c2cccc(F)c2)nc2c1c(=O)[nH]c(=O)n2CC(C)C`, for which the “hERG current change (%, negative = inhibition) at 1uM” value came to 9.01%. The figure for `CCc1nccn1CCC(=O)N1CCc2c([nH]c3ccccc23)C1CC(C)C` (stereo not drawn) is 3.53%; for `Cc1ccsc1/C=C/C1=NCCCN1C.O=C(O)C(O)C(O)C(=O)O` it is 12.9%; for `O=C(NN1CCOCC1)c1cc(-c2ccccc2)nc2ccccc12` it is -1.69%. With `CCOC(=O)C1(Cc2cccc(OC)c2)CCN(Cc2ccc(OC)c(O)c2)CC1`, the “hERG current change (%, negative = inhibition) at 1uM” value is listed as -16.9%. With `COc1cc(/C=C2/NC(=O)N(Cc3ccccc3F)C2=O)cc(OC)c1OC` the figure was 14.2%. The figure for `O=C1C2C3C=CC(C4CC34)C2C(=O)N1c1cc(Cl)ccn1` (stereo not drawn) is 11.3%. For `CCOC(=O)N1CCN(C(=O)c2ccccc2NC(=O)COc2ccccc2C)CC1`, the “hERG current change (%, negative = inhibition) at 1uM” value is -1.41%. With `O=C(Cc1ccccc1)NCC(=O)OCC(=O)c1ccc(OC(=O)c2ccccc2)cc1` the figure was 6.4%.

For the compound `Cc1ccccc1NC(=S)Nc1ccc(Br)cc1`, the “hERG current change (%, negative = inhibition) at 1uM” value is -1.92%.

As for `O=[N+]([O-])c1ccc(OC/C=C2\Oc3ccc([N+](=O)[O-])cc3C2N2CCOCC2)cc1` (stereo not drawn), the “hERG current change (%, negative = inhibition) at 1uM” value is on record as -32.2%. With `CCOc1ccc(CCNC(=O)CSc2cc(=O)n(CC)c3ccccc23)cc1OCC` the figure was 6.02%; with `COC(=O)c1ccc(-c2ccc(OC)c([C@H]3[C@H]4C=CC[C@@H](C)[C@@H]4C(=O)N3Cc3ccccc3)c2)cc1`, 18.5%. The figure for `O=C1CCC/C(=N\NC(=O)c2ccc(NS(=O)(=O)c3ccc(Br)cc3)cc2)C1` is 5.71%. Turning to `O=C(Nc1nsc(-c2ccccc2)n1)c1cccs1`, the “hERG current change (%, negative = inhibition) at 1uM” value is -0.383%.

Turning to `CC(C)Oc1ccc(OCCn2c(S(=O)(=O)O)nc3c(N)ncnc32)cc1`, the “hERG current change (%, negative = inhibition) at 1uM” value was determined as 15.3%. With `O=S(=O)(c1cccc(-c2nnc(SCc3nc4ccccc4s3)o2)c1)N1CCOCC1` the figure was -2.26%. The figure for `O=C(NCCn1cc(SCc2ccccc2F)c2ccccc21)c1c(F)cccc1F` is 13.7%; for `CC(C)OC(=O)CSc1nc(Cc2ccccc2)nc2ccccc12` it is 11.5%. In the case of `Cc1cccc2c(=O)c(Br)c(C)n(Cc3ccccc3)c12`, the “hERG current change (%, negative = inhibition) at 1uM” value came out at 17%. With `Cc1c(Cl)cccc1NC(=O)CSC(N)=O` the figure was 13.1%; with `COC(=O)C1=C(c2ccc(F)cc2F)C[C@@H]2CC[C@H]1N2C(=O)NCCNC(C)=O`, 16.3%.

On to `O=C(CCCn1c(=S)[nH]c2cc3c(cc2c1=O)OCO3)N1CCN(c2ccc(F)cc2)CC1`, for which the “hERG current change (%, negative = inhibition) at 1uM” value was 2.68%. With `Cc1cccc(Oc2coc3cc(O)ccc3c2=O)c1` the figure was 5.43%; with `Cc1cccc(N2C(=O)/C(=C/c3ccc(CN(CCC#N)S(C)(=O)=O)o3)C(=O)NC2=S)c1`, 7.33%. The figure for `COc1cc(C(=O)Nn2c(CC(C)C)nc3ccccc3c2=O)cc(OC)c1OC` is 11.4%; for `COc1ccccc1C(=O)COC(=O)c1c(-c2ccccc2)noc1C` it is 7.08%. Regarding `Cc1cc(C)n(CC(C)NCc2cn[nH]c2-c2ccc(C)c(C)c2)n1` (stereo not drawn), the “hERG current change (%, negative = inhibition) at 1uM” value is listed as -7.72%. The figure for `C#CCN1C(=O)C(O)(CC(=O)c2ccc3c(c2)OCCO3)c2ccccc21` (stereo not drawn) is 15.6%; for `CC(C)c1nnc(NC(=O)CCC(=O)N2CCC(Cc3ccccc3)CC2)s1` it is 12.5%; for `CCOc1cc(OCC)nc(S(C)(=O)=O)n1` it is -0.936%. With `Cl.c1ccc2c(c1)N1CCCN=C1N2CCN1CCCCC1` the figure was -26.2%. With `Cc1cc(=O)oc2cc(OCC(O)CN3CCc4ccccc4C3)ccc12` (stereo not drawn) the figure was -14.7%; with `Cc1cc2cc(CNC(=O)C3CCCC3)ccc2n1C`, 12.2%. `COc1ccc(C2CC(c3cccs3)n3nc(N)nc3N2)cc1` (stereo not drawn): the “hERG current change (%, negative = inhibition) at 1uM” value is recorded as -15.2%. As to `Cc1cc(C(=O)Nc2cccc(-c3ccc(N4CCOCC4)nn3)c2)ccc1[N+](=O)[O-]`, the “hERG current change (%, negative = inhibition) at 1uM” value is 10.7%.

As to `CCOc1cc(CNc2ncc(-c3ccc(OC)cc3)n2C)ccc1O.O=C(O)C(=O)O`, the “hERG current change (%, negative = inhibition) at 1uM” value is on record as -4.24%.

Turning to `O=S(=O)(NCC1CCCO1)c1ccc(Cl)nc1` (stereo not drawn), the “hERG current change (%, negative = inhibition) at 1uM” value is reported as 9.23%. The figure for `O=S(=O)(c1cccc2nsnc12)N1CCN(C/C=C\c2ccccc2)CC1` is -0.838%. The figure for `CCOC(=O)C1(CCOc2ccccc2)CCN(Cc2ccc(OCCO)cc2)CC1` is -85.1%. As to `O=S(=O)(c1cccc2nsnc12)N1CCN(C/C=C/c2ccccc2)CC1`, the “hERG current change (%, negative = inhibition) at 1uM” value is given as -14.8%. For the compound `CCOc1cc(/C=N/NC(=O)c2ccc3c(c2)OCCO3)cc(Br)c1O`, the “hERG current change (%, negative = inhibition) at 1uM” value came out at 7.91%. With `CC1=C(C)CC(C(=O)N2CCN(Cc3ccc4c(c3)OCO4)CC2)C(C(=O)O)C1` (stereo not drawn), the “hERG current change (%, negative = inhibition) at 1uM” value was found to be 16.5%. The figure for `C(=N\Nc1nc(Nc2ccccc2)nc(N2CCOCC2)n1)/c1c[nH]c2ccccc12` is 2.26%; for `Cc1ccc(CNC(=O)c2ccc(CNS(=O)(=O)c3ccc4c(c3)C(C)(C)C(=O)N4C)cc2)o1` it is -1%; for `C/C(=N/NC(=O)c1ccoc1C)C12CC3CC(CC(C3)C1)C2` it is 12.6%. With `O=C(CCl)Nc1nccs1` the figure was 8.92%; with `Cc1ccc(N2C(=O)CC(NCC3CCCO3)C2=O)cc1` (stereo not drawn), 25.5%. The figure for `CC1=C(/C=C/c2ccccc2)CCN(C)C1.Cl` is 0.456%; for `CC(C)NS(=O)(=O)c1ccc(OCC(=O)NCc2cccnc2)cc1` it is -5.98%; for `Cl.NCC1CCC(C(=O)Oc2ccc(CCC(=O)O)cc2)CC1` (stereo not drawn) it is 16%. As for `Cc1cc(C)cc(NC(=O)c2ccccc2NC(=O)CCC(=O)O)c1`, the “hERG current change (%, negative = inhibition) at 1uM” value is given as 7.41%. The figure for `COc1cc([N+](=O)[O-])ccc1NC(=O)CC1SC(=Nc2ccc(F)cc2)N(CCC2=CCCCC2)C1=O` (stereo not drawn) is 3.47%; for `Nc1nc(N)c2nc(-c3ccccc3)c(N)nc2n1` it is -0.772%.
